In PubChem BioAssay AID1508624 (National Center for Advancing Translational Sciences (NCATS), 2021):
In all, about 48,000 compounds went through this assay and about 120 (0.25%) were called active. Not shown: some 4% with an inconclusive outcome. Calls come from the whole dose curve; as a rule, active = well fitted activation curve with a large enough effect; inconclusive = small, poorly fitted or top-dose-only effect, or another doubt; inactive = no such curve, though single readings can be large or run the other way. The list shows a part of the results.

test: Primary qHTS for Identification of Small Molecule Activators of Huntingtin-Antisense Promoter Activity; details: HEK293 HTT-AS promoter firefly luciferase reporter (activity 0% = vehicle and -100% = no light), 24 h; series mostly up to 57.5 µM; activity change, positive = activation: at the top concentration; note: nearly all actives have a fitted effect of over 55% in size
Procedure, shortened: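 HEK293 Fluc reporter, 2,500 cells/well, 24 h pre-culture; cpds up to 57.5 uM final, 24 h 37 degrees C; Dual-Glo, 10 min RT; normalized vehicle = 0%, zero RLU = -100%.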

Activity change, positive = activation, inactive:
COc1ccc(S(=O)(=O)Nc2cccnc2Nc2ccc(O)cc2)cc1 -37.1%
O=C(CCc1nc(CN2CCN(S(=O)(=O)c3ccc(F)cc3)CC2)no1)N1CCCCC1 -8.94%
CCc1ccc(-n2c(SCc3ccccc3F)nc3[nH]ncc3c2=O)cc1 -36.1%
O=C(c1ccc2c(c1)N(Cc1ccccc1F)C(=O)c1ccccc1S2(=O)=O)N1CCCCC1 -10%
COc1cccc(NC(=O)CSC2=Nc3ccccc3N=C(c3ccc(F)cc3)C2)c1 -29.9%
C[C@]12C[C@H](O)[C@H]3[C@@H](CCC4=CC(=O)CC[C@@]43C)[C@@H]1CC[C@@H]2C(=O)CO -14.3%
CCc1ccc(C(=O)c2cn(CC(=O)NCCc3ccc(OC)c(OC)c3)c3nc(C)ccc3c2=O)cc1 -21.9%
CCOC(=O)C1CCCN(S(=O)(=O)c2ccc3c(c2)CCCN3C(C)=O)C1 (stereo not given) -33.3%
COc1ccc(CCNC(=O)c2cc3c(-c4ccccc4F)nn(C)c3s2)c(OC)c1 -30.1%
O=C(Nc1ccc(Br)cc1F)c1cc(S(=O)(=O)NCc2ccc(F)cc2)ccc1F -23.9%
COc1ccc(NC(=O)c2cc3c(s2)-c2c(C)cccc2OC3)c(OC)c1 -10.2%
CCCCNc1nc(Oc2ccc(=O)[nH]n2)nc(N(C)C)n1 0.776%
C=C(C)Cn1c(=O)c2c(nc3n2CCN3c2ccc(CC)cc2)n(C)c1=O -0.19%
CCc1nn(CC(=O)NCCCN(CC)CC)c(=O)c2cc3sc(C)cc3n12 2.92%
CSc1ncc(C(=O)Nc2ccccc2C(=O)c2ccccc2)c(C(F)(F)F)n1 -29.5%
Fc1ccc(-n2cc(-c3ccccc3)c3c(NC4CCCCC4)ncnc32)cc1 -22.1%
CCOC(=O)c1cccc(NC(=O)c2cc3c(=O)n(Cc4ccccc4)ccc3nc2C)c1 -28%
CCC(=O)N1CCc2cc(S(=O)(=O)NC(Cc3ccccc3)C(=O)Nc3ccc(C)cc3)ccc21 (stereo not given) 3.18%
Cc1ccc(NC(=O)c2sc3nc(-c4cc5ccccc5oc4=O)[nH]c(=O)c3c2C)c(C)c1 -0.951%
O=C(CC1Sc2ccc(C(F)(F)F)cc2NC1=O)Nc1ccc(Cl)c(C(F)(F)F)c1 (stereo not given) -23.4%
CCOc1ccc(-n2c(SCc3ccc(C(=O)OC)o3)nc3c([nH]c4ccccc43)c2=O)cc1 -21.8%
CCOc1ccc(-c2cc(OC(=O)c3ccc(F)cc3)c3c(C)oc(C)c3c(=O)c2)cc1 -25.3%
COc1cc(C(=O)Nc2cc(C)ccc2OCc2cc(=O)n3c(C)csc3n2)cc(OC)c1OC -1.68%
CCN1C(=O)c2ccccc2Sc2ccc(NC(C)=O)cc21 -0.139%
CC1=C(C(=O)OC2CCCCCC2)C(c2c(F)cccc2Cl)CC(=O)N1 (stereo not given) -46%
CCN(CCCNC(=O)c1c(C)oc2ncn(CC(C)C)c(=O)c12)Cc1ccccc1 3.55%
COc1ccc(N(Cc2cccs2)C(=O)COc2cccc(Cl)c2)cc1 -32.7%
Cn1c(=O)n(-c2ccc(F)c(Cl)c2)c(=O)c2sc3ccccc3c21 -13.1%
O=C1CC2(CCCC2)CC(=O)N1 -0.0864%
CCOC(=O)c1c(Nc2ccc(C)cc2)nnc(-c2ccccc2)c1-c1ccccc1 -36.3%
COc1ccc(NCc2cc3cc4c(cc3n(CC(=O)Nc3ccc(F)cc3F)c2=O)OCO4)cc1 -26.5%
CCc1ccccc1NS(=O)(=O)c1ccc(OC)c2ncccc12 -33.5%
CCC1CCCCN1C(=O)c1ccc2c(c1)N(Cc1cccc(Cl)c1)C(=O)c1ccccc1S2(=O)=O (stereo not given) -33.6%
CCN(CC)c1ccc(C(=C2C=CC(=[N+](CC)CC)C=C2)c2cc(S(=O)(=O)O)ccc2S(=O)(=O)[O-])cc1 -55.8%
CCOC(=O)c1cnc2c(Cl)cccc2c1NCCN1CCOCC1 -9.2%
COC(=O)CCSc1nc2sc3c(c2c(=O)n1Cc1ccccc1)CCC(C(C)(C)C)C3 (stereo not given) -4.93%
Cc1ccc(-n2ncc3c(NCCCN4CCOCC4)ncnc32)cc1 5.44%
O=C(CCC1N=C2c3ccccc3N=C(SCc3ccccc3F)N2C1=O)NC1CCCCC1 (stereo not given) -43.9%
COc1cccc(-n2c(=O)c3c(C)c(C(=O)N(C)C)sc3n(Cc3ccc(F)cc3Cl)c2=O)c1 0.666%
CCn1c2ccccc2c2nnc(N3CCN(c4cc(C)ccc4C)CC3)nc21 -1.51%
Fc1ccc(-c2nc(Nc3cccc(Cl)c3)nc3c2COc2ccccc2-3)cc1 -31.4%
O=C(O)c1ccc2c(c1)nc(Nc1cccc(Cl)c1)c1ccncc12 -11.3%
COc1ccc(N2CCN(S(=O)(=O)c3ccc4c(c3)CC(C)N4C(C)=O)CC2)cc1 (stereo not given) -94.3%
COc1ccc(NC(=O)C2Cc3ccccc3N2C(=O)c2ccccc2)c(OC)c1 (stereo not given) -21.5%
CCOc1ccccc1NC(=O)c1cc2c(Cl)nc3ccccc3c2s1 -11%
CC(C)CCNC(=O)c1cccc(Nc2nc3ccccc3n3nnnc23)c1 -40.8%
COc1ccc(Cl)cc1NC(=O)c1ccc2nc(Cc3ccccc3)oc2c1 -18.8%
Cc1ccc(NC(=O)c2cc(S(=O)(=O)NCCC3=CCCCC3)ccc2F)cc1F -89.8%
CCCC(=O)Nc1cc(C)c(O)c(-c2nc3ncccc3o2)c1 -7.53%
Cc1cc(NC(=O)c2ccc(Br)o2)cc(-c2nc3ccccc3o2)c1O 5.38%
Cc1ccc(-n2nc(C(=O)N3CCN(c4cc(Cl)ccc4C)CC3)c(=O)n(C)c2=O)cc1 -21.4%
CCCCNC(=O)C1CCCN(Cc2nc(-c3ccc(Cl)cc3)oc2C)C1 (stereo not given) -6.19%
CCc1ccc(C(=O)c2cn(CC(=O)Nc3ccc(F)c(F)c3)c3cc(OC)c(OC)cc3c2=O)cc1 -46.6%
Cc1ccc(Oc2c(C(F)(F)F)oc3c(CN4CCCCC4)c(O)ccc3c2=O)cc1 0%
O=C(Nc1ccc(Cl)cc1)C1CCCN(S(=O)(=O)c2ccc3[nH]c(=O)ccc3c2)C1 (stereo not given) -25.6%
Cc1cc(F)ccc1NC(=O)CCS(=O)(=O)c1ccc2c(c1)NC(=O)CO2 -4.87%
CCOC(=O)c1ccccc1NC(=O)CSc1cn(CC(=O)N2CCCCC2)c2ccccc12 -5.15%
COc1cc(Cl)cn2c(-c3cccc(NC4CNC4)n3)cnc12 -27.7%
Cc1nc2c(-c3ccccc3)c(C)nn2c(C)c1CCC(=O)NC(C)c1ccccc1 (stereo not given) -13.5%
COc1cccc(CNC(=O)C2CCCN(S(=O)(=O)c3ccc4c(ccn4C)c3)C2)c1 (stereo not given) -10.6%
CCC(C(=O)Nc1ccc(C(=O)OC)cc1)n1c(=O)c(-c2ccccc2NC(C)=O)nc2ccccc21 (stereo not given) -42.2%
Nc1ccn([C@@H]2O[C@H](CO)[C@@H](O)C2O)c(=O)n1 (stereo not given in full) 3.78%
COc1cc(CN(C(=O)Nc2ccccc2)c2ccccn2)cc(OC)c1OC 6.84%
CCc1ccccc1NS(=O)(=O)c1ccc2[nH]cc(C(=O)N3CCCCC3)c(=O)c2c1 -5.46%
CCOc1ccc(NC(=O)C(=O)NCCc2csc(-c3ccc(F)cc3)n2)cc1 -2.26%
CCc1cccc(NC(=O)Nc2ccc3c(c2)N(C)C(=O)c2ccccc2S3)c1 -38.3%
COc1ccc(NS(=O)(=O)c2cc3[nH]c(=O)c(=O)[nH]c3cc2C)cc1Cl -11%
CCC(=O)N1CCc2cc(Br)cc(S(=O)(=O)CCC(=O)NCCc3ccc(OC)c(OC)c3)c21 2.55%
CCOc1ccc(/C=C/c2nc(C#N)c(N3CCN(c4ccc(OC)cc4)CC3)o2)cc1 -7.32%
Cn1cc(S(=O)(=O)N2CCCCCC2)cc1C(=O)N1CCN(c2ccc(F)cc2)CC1 -20.1%
Cc1ccc(NC(=O)Cc2c(C(=O)O)c(C)cn2C)cc1Cl -3.88%
CC(C)OCCCn1c(SCc2ccccc2C#N)nc2c(sc3ccccc32)c1=O 1.36%
CCN(CC)CC(C)CNC(=O)CN1C(=O)CSc2ccc(S(=O)(=O)N3CCOCC3)cc21 (stereo not given) -4.64%
CN(C(=O)C1CCCN(c2ncnc3c2nc2n3CCCCC2)C1)c1ccccc1F (stereo not given) -31.9%
CCN(CC)CCOc1ccc2c(c1)C(=O)c1cc(OCCN(CC)CC)ccc1-2 -14.4%
COc1cc(OC)c(NC(=O)CN2C(=O)CCn3nc(-c4cccn4C)cc32)cc1Cl -0.494%
COc1cc(NC(=O)CCn2c(-c3ccccc3)cc(C(C)=O)c2C)cc(OC)c1 -24.8%
COc1ccc(NC(=O)C(NS(=O)(=O)c2ccc3c(c2)CCCC(=O)N3)C(C)C)c(OC)c1 (stereo not given) -10.4%
Cc1cc(C)c(NC(=O)CSc2ccnc(=O)[nH]2)c(C)c1 -8.23%
Cc1c(Cl)cccc1NC(=O)CSc1ncnc2c1sc1ccccc12 -8.71%
Cc1cccc(CNC(=O)c2oc3c(c2C)-c2nn(Cc4ccccc4Cl)cc2CC3)c1 -28%
Cc1cc(OCC(=O)Nc2ccc(-c3nc4cc(Cl)ccc4o3)cc2)cc(C)c1Cl 7.43%
NS(=O)(=O)c1ccc(CCNC(=O)C2COc3ccccc3C2)cc1 (stereo not given) 8.79%
CCc1ccc(C2CC(=O)c3c([nH]c(C(=O)OCC4CCCCC4)c3C)C2)cc1 (stereo not given) -13.1%
Cc1ccc(Cn2c(=O)c3cccnc3n(CC(=O)Nc3cccc(C(F)(F)F)c3)c2=O)cc1 -38.9%
O=C(COc1ccccc1)NCc1ccc2c(c1)CCN2C(=O)c1ccc(F)cc1 -7.16%
Cc1c(Cl)cccc1Nc1nc2ccc(C(=O)c3ccccc3)cc2n2cnnc12 -24.5%
Cc1ccc(CNC(=O)CN2C(=O)C3(SCC(=O)N3c3ccc(F)cc3)c3ccccc32)cc1 (stereo not given) -11.5%
Cc1ccc(NC(=O)Cn2c(-c3cncs3)nc3ccccc32)c(Br)c1 -19.2%
CC(=O)N1CCc2c(sc3c2c(=O)n(Cc2ccccc2)c(=O)n3Cc2cc(C)ccc2C)C1 -12.9%
COc1ccc2c(c1)Cc1sc(NC(=O)c3cccc(Br)c3)nc1-2 -20%
CC1CN(C(=O)N2CCC(C(=O)NCCCc3ccccc3)CC2)c2ccccc2O1 (stereo not given) -17.5%
CCOc1ccc(Nc2oc(/C=C/c3cccc(OC)c3)nc2C#N)cc1 1.47%
CCCCCn1c(CCNC(=O)c2cccc(C)c2)nc2ccccc21 -24%
NS(=O)(=O)c1ccc(NC(=O)CSc2ccc3ccccc3n2)cc1 -7.26%
